Experimental data published in publication PMC3158102.
Results are given in words; binding and its absence hold for the method and conditions named. In cells and extracts the contact can be indirect. Some results given as binding are weak or reduced against the parent protein; the word gives no strength.

Protein sequences, listed by entry. Tags and fused reporters are not part of them. Lines headed by an entry give the natural chain unless they say otherwise; changes in a name come on top. Residues count along the entry.
UniProt P46940: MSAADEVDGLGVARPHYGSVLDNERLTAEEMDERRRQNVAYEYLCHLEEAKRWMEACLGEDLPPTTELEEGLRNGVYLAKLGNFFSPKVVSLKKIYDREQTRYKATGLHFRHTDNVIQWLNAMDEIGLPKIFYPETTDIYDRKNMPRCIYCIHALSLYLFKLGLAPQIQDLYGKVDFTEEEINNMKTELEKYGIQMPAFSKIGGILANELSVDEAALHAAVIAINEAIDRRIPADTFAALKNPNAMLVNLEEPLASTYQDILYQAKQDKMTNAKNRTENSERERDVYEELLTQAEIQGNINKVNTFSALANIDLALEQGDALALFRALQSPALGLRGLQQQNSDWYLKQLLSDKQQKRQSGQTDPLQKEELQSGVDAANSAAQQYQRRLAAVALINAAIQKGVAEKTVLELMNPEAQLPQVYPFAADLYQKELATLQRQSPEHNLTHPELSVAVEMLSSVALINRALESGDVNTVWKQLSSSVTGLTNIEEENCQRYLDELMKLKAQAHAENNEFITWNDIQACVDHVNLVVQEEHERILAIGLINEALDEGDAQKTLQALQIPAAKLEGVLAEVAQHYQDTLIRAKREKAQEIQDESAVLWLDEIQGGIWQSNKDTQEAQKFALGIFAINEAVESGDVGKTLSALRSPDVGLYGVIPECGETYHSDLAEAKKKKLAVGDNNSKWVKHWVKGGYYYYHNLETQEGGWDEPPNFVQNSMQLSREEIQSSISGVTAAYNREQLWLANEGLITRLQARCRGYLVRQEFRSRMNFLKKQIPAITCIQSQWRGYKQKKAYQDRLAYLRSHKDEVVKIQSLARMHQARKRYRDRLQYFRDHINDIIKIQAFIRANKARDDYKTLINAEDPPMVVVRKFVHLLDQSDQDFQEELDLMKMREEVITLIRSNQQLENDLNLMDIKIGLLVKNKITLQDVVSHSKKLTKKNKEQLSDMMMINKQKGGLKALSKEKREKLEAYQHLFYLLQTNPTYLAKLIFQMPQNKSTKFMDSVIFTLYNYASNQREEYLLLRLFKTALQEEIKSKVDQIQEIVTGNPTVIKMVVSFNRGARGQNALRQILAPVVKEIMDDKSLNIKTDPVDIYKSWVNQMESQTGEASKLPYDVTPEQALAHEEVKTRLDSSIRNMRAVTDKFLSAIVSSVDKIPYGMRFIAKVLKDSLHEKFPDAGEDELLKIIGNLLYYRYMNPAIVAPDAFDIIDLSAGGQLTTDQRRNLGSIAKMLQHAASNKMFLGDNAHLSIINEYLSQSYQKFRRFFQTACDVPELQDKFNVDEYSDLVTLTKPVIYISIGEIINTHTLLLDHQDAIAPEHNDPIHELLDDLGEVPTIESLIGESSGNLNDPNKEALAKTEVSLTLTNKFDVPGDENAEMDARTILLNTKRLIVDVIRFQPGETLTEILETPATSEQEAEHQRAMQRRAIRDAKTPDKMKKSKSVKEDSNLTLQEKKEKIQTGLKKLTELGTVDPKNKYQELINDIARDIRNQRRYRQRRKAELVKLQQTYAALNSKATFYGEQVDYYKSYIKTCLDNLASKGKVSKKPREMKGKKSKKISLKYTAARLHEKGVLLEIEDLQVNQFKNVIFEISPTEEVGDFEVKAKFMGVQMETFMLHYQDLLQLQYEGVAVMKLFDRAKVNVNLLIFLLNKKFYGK
GST-IQGAP1-amino-terminus (NT) (residues 1-863): residues 1-863 of P46940
GST-IQGAP1 1-265: residues 1-265 of P46940
GST-IQGAP1 1-160: residues 1-160 of P46940
GST fusion protein containing IQGAP1 residues 1-44: residues 1-44 of P46940
GST fusion protein containing IQGAP1 residues 160-431: residues 160-431 of P46940
UniProt P25025: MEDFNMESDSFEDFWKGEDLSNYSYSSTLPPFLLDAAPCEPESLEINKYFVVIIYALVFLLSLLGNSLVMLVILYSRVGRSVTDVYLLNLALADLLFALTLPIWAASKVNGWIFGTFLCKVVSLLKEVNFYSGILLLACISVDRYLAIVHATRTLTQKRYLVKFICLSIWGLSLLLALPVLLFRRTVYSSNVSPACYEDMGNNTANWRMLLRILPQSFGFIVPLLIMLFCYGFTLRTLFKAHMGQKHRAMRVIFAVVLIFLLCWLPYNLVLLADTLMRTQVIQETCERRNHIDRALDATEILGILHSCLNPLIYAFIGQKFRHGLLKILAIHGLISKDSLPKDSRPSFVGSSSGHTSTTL

Assays:
[1] = target: GST-IQGAP1 1-265 (UniProt P46940); test: pull-down; GST or GST-IQGAP1 fragments on glutathione beads incubated with lysates of differentiated HL-60 cells stably expressing CXCR2; western blot with anti-CXCR2 antibody; only the target purified
[2] = target: GST fusion protein containing IQGAP1 residues 160-431 (UniProt P46940); test: as above
[3] = target: GST-IQGAP1-amino-terminus (NT) (residues 1-863) (UniProt P46940); test: as above
[4] = target: GST-IQGAP1 1-160 (UniProt P46940); test: as above
[5] = target: GST fusion protein containing IQGAP1 residues 1-44 (UniProt P46940); test: as above
[6] = target: IQ motif containing GTPase activating protein 1 (IQGAP1), endogenous in differentiated HL-60 cells (human (endogenous in HL-60)) (UniProt P46940); test: co-IP; reverse co-IP: differentiated HL-60 cells cross-linked with 2 mM DSP after 100 ng/ml CXCL8, lysed in 1x RIPA; anti-IQGAP1 polyclonal rabbit antibody and protein A/G agarose; western blot for CXCR2
[7] = target: CXCR2 stably over-expressed in differentiated HL-60 cells (UniProt P25025); test: co-IP; anti-CXCR2 antibody-coupled Sepharose; lysates of differentiated HL-60 cells expressing CXCR2, untreated or 100 ng/ml CXCL8 for 1 min; western blot for IQGAP1
[8] = target: CXCR2 stably over-expressed in differentiated HL-60 cells (UniProt P25025); test: condition: only after 5 min of stimulation of the cells with 100 ng/ml CXCL8; co-IP; anti-CXCR2 antibody-coupled Sepharose; lysates of differentiated HL-60 cells expressing CXCR2 stimulated with 100 ng/ml CXCL8 for 5 min; western blot for IQGAP1
[9] = target: CXCR2 stably over-expressed in differentiated HL-60 cells (UniProt P25025); test: co-IP; differentiated HL-60 cells lysed in 0.1% triton X-100 in PBS; anti-CXCR2 antibody; in the presence of IQGAP1 fragment 1-160 (20 or 40 mg), control fragment IQGAP1 161-431 or buffer only; immunoblot for IQGAP1
[10] = target: CXCR2 stably expressed in HEK293 cells (UniProt P25025); test: co-IP; HEK293-CXCR2 cells transiently transfected with vector or IQGAP1 1-160 construct, CXCL8 (100 ng/ml) or carrier buffer 5 min at 37 C; anti-CXCR2 antibody conjugated to sepharose beads; immunoblot for IQGAP1

## CXCR2 stably over-expressed in differentiated HL-60 cells (from UniProt P25025 1-360) (receptor)
[1]
  binding: binds
[2]
  binding: no binding
[3]
  binding: binds
[4]
  binding: binds
[5]
  binding: no binding
[6]
  binding: binds

## IQ motif containing GTPase activating protein 1 (IQGAP1), endogenous in differentiated HL-60 cells (from UniProt P46940 1-1657)
[7]
  binding: binds
[8]
  binding: no binding
[9]
  binding: binds

## IQGAP1, endogenous in HEK293-CXCR2 cells (from UniProt P46940 1-1657)
[10]
  binding: binds
